The supplement of paper PMC12217912
This is one part of the list. The full chains were built here from the parent and the listed change. Values near 0.05 are background.

B1: TEV protease; numbered along this chain (parent)
chain: MGESLFKGPRDYNPISSSICHLTNESDGHTTSLYGIGFGPFIITNKHLFRRNNGTLVVQSLHGVFKVKDTTTLQQHLVDGRDMIIIRMPKDFPPFPQKLKFREPQREERICLVTTNFQTKSMSSMVSDTSCTFPSGDGIFWKHWIQTKDGQCGSPLVSTRDGFIVGIHSASNFTNTNNYFTSVPKNFMELLTNQEAQQWVSGWRLNADSVLWGGHKVFMVKPEEPFQPVKEATQL

Variants of: B1
Assay: raw area under fraction-flipped curve 0-4 h after induction (AUC4h, not background-subtracted), DNA-recorder readout of cleavage of the substrate (dimensionless); higher = more cleavage of the substrate by the protease variant
Settings: temperature: 34 °C; time window: 0-4 h after rhamnose induction
Protocol: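 In vivo DNA recorder in E. coli TOP10(DE3) ΔrhaA at 34 °C. Each TEVp single-site mutant (parent TEVp 0) is paired with a single-site variant of the 7-mer TEVs (canonical ENLYFQ|S). The substrate sits between flexible linkers in a Bxb1-sfGFP-TEVs-SsrA fusion, so cleavage stabilises Bxb1 and speeds flipping of a recombination array, read by NGS. The value is the raw area under the fraction-flipped curve over 0-4 h after rhamnose induction (AUC4h), with ≥20 reads per time point. It is not background-subtracted; inactive controls average about 0.047.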
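Note: Bxb1 expression induced with 0.2% (w/v) L-rhamnose at OD600 near 0.5, cultures sampled hourly, flipped fraction per protease–substrate barcode pair counted by paired-end Illumina sequencing.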

Variant: D27W
- area with substrate ENCYFQS: 0.0765
- area with substrate ENDYFQS: 0.0515
- area with substrate ENEYFQS: 0.07
- area with substrate ENFYFQS: 0.0551
- area with substrate ENPYFQS: 0.0635
- area with substrate ENQYFQS: 0.0532
- area with substrate ENRYFQS: 0.068
- area with substrate ENSYFQS: 0.0537
- area with substrate ENVYFQS: 0.076
- area with substrate ENWYFQS: 0.0594
- area with substrate ENYYFQS: 0.059

Variant: K46T
- area with substrate ENCYFQS: 0.0583
- area with substrate ENDYFQS: 0.0458
- area with substrate ENEYFQS: 0.05
- area with substrate ENFYFQS: 0.0765
- area with substrate ENGYFQS: 0.0676
- area with substrate ENHYFQS: 0.0491
- area with substrate ENKYFQS: 0.0581
- area with substrate ENNYFQS: 0.0564
- area with substrate ENQYFQS: 0.0653
- area with substrate ENRYFQS: 0.047
- area with substrate ENSYFQS: 0.0584
- area with substrate ENTYFQS: 0.0492
- area with substrate ENVYFQS: 0.0752
- area with substrate ENYYFQS: 0.071

Variant: V229F
- area with substrate ENAYFQS: 0.0647
- area with substrate ENCYFQS: 0.0694
- area with substrate ENDYFQS: 0.0439
- area with substrate ENEYFQS: 0.0602
- area with substrate ENFYFQS: 0.0798
- area with substrate ENGYFQS: 0.0651
- area with substrate ENHYFQS: 0.0612
- area with substrate ENIYFQS: 0.108
- area with substrate ENMYFQS: 0.0765
- area with substrate ENNYFQS: 0.0624
- area with substrate ENPYFQS: 0.0513
- area with substrate ENQYFQS: 0.0606
- area with substrate ENSYFQS: 0.0559
- area with substrate ENTYFQS: 0.0595
- area with substrate ENVYFQS: 0.105

Variant: V229C
- area with substrate ENAYFQS: 0.0475
- area with substrate ENCYFQS: 0.0633
- area with substrate ENDYFQS: 0.0943
- area with substrate ENEYFQS: 0.0589
- area with substrate ENFYFQS: 0.0679
- area with substrate ENGYFQS: 0.065
- area with substrate ENIYFQS: 0.0982
- area with substrate ENKYFQS: 0.0546
- area with substrate ENMYFQS: 0.0348
- area with substrate ENNYFQS: 0.0619
- area with substrate ENPYFQS: 0.0508
- area with substrate ENQYFQS: 0.0617
- area with substrate ENRYFQS: 0.0537
- area with substrate ENSYFQS: 0.0657
- area with substrate ENTYFQS: 0.0675
- area with substrate ENVYFQS: 0.0774
- area with substrate ENYYFQS: 0.0588

Variant: I86V
- area with substrate ENCYFQS: 0.0618
- area with substrate ENEYFQS: 0.0645
- area with substrate ENFYFQS: 0.061
- area with substrate ENGYFQS: 0.0623
- area with substrate ENHYFQS: 0.0584
- area with substrate ENKYFQS: 0.0453
- area with substrate ENNYFQS: 0.0524
- area with substrate ENQYFQS: 0.0535
- area with substrate ENRYFQS: 0.0564
- area with substrate ENYYFQS: 0.0596

Variant: H21C
- area with substrate ENCYFQS: 0.0659
- area with substrate ENEYFQS: 0.0559
- area with substrate ENGYFQS: 0.0467
- area with substrate ENHYFQS: 0.0584
- area with substrate ENMYFQS: 0.0647
- area with substrate ENNYFQS: 0.032
- area with substrate ENPYFQS: 0.0688
- area with substrate ENQYFQS: 0.055
- area with substrate ENRYFQS: 0.0527
- area with substrate ENSYFQS: 0.0617
- area with substrate ENTYFQS: 0.0669
- area with substrate ENVYFQS: 0.0571
- area with substrate ENYYFQS: 0.0646

Variant: H21Q
- area with substrate ENCYFQS: 0.0719
- area with substrate ENDYFQS: 0.0666
- area with substrate ENEYFQS: 0.0543
- area with substrate ENFYFQS: 0.0555
- area with substrate ENGYFQS: 0.0606
- area with substrate ENHYFQS: 0.0639
- area with substrate ENIYFQS: 0.0822
- area with substrate ENKYFQS: 0.0479
- area with substrate ENNYFQS: 0.0642
- area with substrate ENPYFQS: 0.0234
- area with substrate ENQYFQS: 0.0526
- area with substrate ENRYFQS: 0.0544
- area with substrate ENSYFQS: 0.0556
- area with substrate ENTYFQS: 0.0518
- area with substrate ENVYFQS: 0.0704
- area with substrate ENWYFQS: 0.048

Variant: R106A
- area with substrate ENDYFQS: 0.0482
- area with substrate ENEYFQS: 0.0757
- area with substrate ENFYFQS: 0.0613
- area with substrate ENHYFQS: 0.0613
- area with substrate ENMYFQS: 0.0895
- area with substrate ENNYFQS: 0.0657
- area with substrate ENPYFQS: 0.0738
- area with substrate ENQYFQS: 0.0526
- area with substrate ENSYFQS: 0.0605
- area with substrate ENVYFQS: 0.105
- area with substrate ENWYFQS: 0.0536

Variant: N24E
- area with substrate ENCYFQS: 0.0648
- area with substrate ENDYFQS: 0.0554
- area with substrate ENEYFQS: 0.0591
- area with substrate ENFYFQS: 0.0646
- area with substrate ENGYFQS: 0.0698
- area with substrate ENHYFQS: 0.0613
- area with substrate ENIYFQS: 0.1
- area with substrate ENNYFQS: 0.0657
- area with substrate ENQYFQS: 0.0552
- area with substrate ENRYFQS: 0.0443
- area with substrate ENSYFQS: 0.0442
- area with substrate ENTYFQS: 0.0721
- area with substrate ENVYFQS: 0.0554

Variant: P89S
- area with substrate ENDYFQS: 0.0564
- area with substrate ENEYFQS: 0.0649
- area with substrate ENGYFQS: 0.0585
- area with substrate ENHYFQS: 0.0668
- area with substrate ENIYFQS: 0.0788
- area with substrate ENKYFQS: 0.0509
- area with substrate ENNYFQS: 0.0561
- area with substrate ENPYFQS: 0.0549
- area with substrate ENQYFQS: 0.0647
- area with substrate ENSYFQS: 0.0681
- area with substrate ENTYFQS: 0.0661
- area with substrate ENVYFQS: 0.0594
- area with substrate ENYYFQS: 0.0617

Variant: L77Y
- area with substrate ENCYFQS: 0.0599
- area with substrate ENDYFQS: 0.0832
- area with substrate ENEYFQS: 0.0476
- area with substrate ENFYFQS: 0.0631
- area with substrate ENGYFQS: 0.0593
- area with substrate ENHYFQS: 0.0587
- area with substrate ENIYFQS: 0.0581
- area with substrate ENMYFQS: 0.0398
- area with substrate ENNYFQS: 0.0724
- area with substrate ENQYFQS: 0.0578
- area with substrate ENRYFQS: 0.0406
- area with substrate ENSYFQS: 0.0698
- area with substrate ENTYFQS: 0.0595
- area with substrate ENWYFQS: 0.0051
- area with substrate ENYYFQS: 0.0608

Variant: F180N
- area with substrate ENCYFQS: 0.0607
- area with substrate ENDYFQS: 0.0512
- area with substrate ENEYFQS: 0.0549
- area with substrate ENFYFQS: 0.0575
- area with substrate ENHYFQS: 0.0559
- area with substrate ENIYFQS: 0.0544
- area with substrate ENMYFQS: 0.0445
- area with substrate ENNYFQS: 0.0441
- area with substrate ENQYFQS: 0.0564
- area with substrate ENSYFQS: 0.0448
- area with substrate ENTYFQS: 0.0737
- area with substrate ENVYFQS: 0.029

Variant: P134G
- area with substrate ENCYFQS: 0.0676
- area with substrate ENDYFQS: 0.0612
- area with substrate ENFYFQS: 0.0608
- area with substrate ENGYFQS: 0.059
- area with substrate ENHYFQS: 0.0636
- area with substrate ENIYFQS: 0.0769
- area with substrate ENMYFQS: 0.0704
- area with substrate ENNYFQS: 0.0503
- area with substrate ENPYFQS: 0.0663
- area with substrate ENSYFQS: 0.0769
- area with substrate ENTYFQS: 0.0666
- area with substrate ENVYFQS: 0.06
